We go through 34 variants from the RNAGym collection of RNA variant scans (doi:10.1093/nar/gkz1192).

The source gives no read counts; variants with many changes may rest on few reads.

The labels stand for the following.
B1: CPEB3 Ribozyme (parent)
chain: UAACAGGGGGCCACAGCAGAAGCGUUCACGUCGCAGCCCCUGUCAGAUUCUGGUGAAUCUGCGAAUUCUGCUGUAUAUCUC

The data set covers variants of B1. The data set can be described thus: self-cleavage, relative activity (ratio to wild type); higher = more cleavage; in vitro, sequencing. An outline of the steps: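 After error-prone PCR and barcoding, CPEB3 ribozyme mutant libraries were transcribed with T7 RNA polymerase at 37°C for 5 hours, then given 15 min with DNase I before an EDTA stop, and they cleaved during both steps. Reverse transcription with template switching preceded Illumina sequencing. Relative activity divides a variant's cleaved/total read fraction by the unmutated ribozyme's. At least 5 reads were required per variant, and three batches were averaged.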
For UAACGGGGGGCCACAGCAGAAGCGUUCACGUCGCAGCCCCUGCCAGAUUCUGGUGAAUCUGCGAAAUCCGCCGUAUAUCUC [A5G U43C U66A U69C U72C], the self-cleavage was 0.12.
With UAACGGGGGGCCACAGCAGAAGCGUUCACGUCGCAGCCCCUGACAGAUUCCGGUGAAUCUGCGAAUUCUGCUGUAUAACUC [A5G U43A U51C U78A], the self-cleavage came out at 0.89.
UAACGGGGGGCCACAGCAGAAGCGUUCACGUCGCAGCCCCUGUCAGAUCCUGGUGAAUCUGCGAACUCUGCUGUAUAUCUC [A5G U49C U66C]: the self-cleavage worked out at 0.3.
As to UAACGGGGGGCCACAGCAGAAGCGUUCACGUCGCAGCCCCUGUCAGAAUCUGGUGAAUCUGCGGAUUCUGCUGUAUAUCUC [A5G U48A A64G], the self-cleavage was found to be 0.29.
Turning to UAACGGGGGGCCACAGCAGAAGCGUUCACGUCGCAGCCCCUGUCAGACUCCGGUGAAUCUGCGAGUUCUGCUGUAUAUCUC [A5G U48C U51C A65G], the self-cleavage amounted to 0.36.
As for UAACGGGGGGCCACAGCAGAAGCGUUCACGUCGCAGCCCCUGCCAGAUUCUGGUGAAUCCGCGAAUCCUGCUGUAUAUCUC [A5G U43C U60C U67C], the self-cleavage amounted to 0.09.
Turning to UAACGGGGGGCCACAGCAGAAGCGUUCACGUCGCAGCCCCUGUCAGACUCUGGUGGAUCUGCGAAUUCUGCUGUUUAUCUC [A5G U48C A56G A75U], the self-cleavage came out at 0.32.
Turning to UAACGGGGGGCCACAGCAGAAGCGUUCACGUCGCAGCCCCUGUCAGACUCUGGUGAAUCCGCGAAUUCUGCUGUAUAUCUC [A5G U48C U60C], the self-cleavage worked out at 0.03.
As for UAACGGGGGGCCACAGCAGAAGCGUUCACGUCGCAGCCCCUGCCAGAUUCAGGUGAAUCUGCGGAUUCUGCUGUAUAACUC [A5G U43C U51A A64G U78A], the self-cleavage amounted to 0.42.
For the variant UAACGGGGGGCCACAGCAGAAGCGUUCACGUCGCAGCCCCUGUCAGACUCUGGUGAAUCUGCGAAUCCUGCUGUAUAUCUC [A5G U48C U67C], the self-cleavage was found to be 0.1.
Take UAACGGGGGGCCACAGCAGAAGCGUUCACGUCGCAGCCCCUGCCAGAUUCUGGUGAAUCUGCGAAUACUGCUGUAUAUCUC [A5G U43C U67A]: the self-cleavage was 0.32.
Turning to UAACGGGGGGCCACAGCAGAAGCGUUCACGUCGCAGCCCCUGUCAGAUUCCGGUGUAUCUGCGAAUUCUGCUGUAUAUCGC [A5G U51C A56U U80G], the self-cleavage came out at 0.38.
With UAACGGGGGGCCACAGCAGAAGCGUUCACGUCGCAGCCCCUGCCAGAUUCUGGUGAAUCUGCGAAUUCUGCUGUACAACUC [A5G U43C U76C U78A] the figure was 0.46; with UAACGGGGGGCCACAGCAGAAGCGUUCACGUCGCAGCCCCUGUCAGACUCUGUUGAAUCUGCGAAUUCUGCUGUAUAUCUC [A5G U48C G53U], 0.69.
Turning to UAACGGGGGGCCACAGCAGAAGCGUUCACGUCGCAGCCCCUGCCAGAUUCUGGUGAAUCCGCGAAUUCUGCUGUAUAUCUC [A5G U43C U60C], the self-cleavage turned out to be 0.22.
As for UAACGGGGGGCCACAGCAGAAGCGUUCACGUCGCAGCCCCUGUCAGACUCUGGUGAAUCUGCGUAUUCCGCUGUAUAUCUC [A5G U48C A64U U69C], the self-cleavage was found to be 0.1.
With UAACGGGGGGCCACAGCAGAAGCGUUCACGUCGCAGCCCCUGUCAGACUCCUGUGAAUCAGCGAGUUCUGCUGUAUACCUC [A5G U48C U51C G52U U60A A65G U78C] the figure was 0.06; with UAACGGGGGGCCACAGCAGAAGCGUUCACGUCGCAGCCCCUGCCAAAUUCUGGCGUAUCUGCGAAUUCUGCUGUAUAUCUC [A5G U43C G46A U54C A56U], 0.28; with UAACGGGGGGCCACAGCAGAAGCGUUCACGUCGCAGCCCCUGCUAGAUUCUGGUGAAUCUGCGAAUUCUGCUGUAUAUCCC [A5G U43C C44U U80C], 0.13.
Regarding UAACGGGGGGCCACAGCAGAAGCGUUCACGUCGCAGCCCCUGUCAGAUCCUGGUGAAUCUGCGAAUUCUGCUGUAUACCUC [A5G U49C U78C], the self-cleavage came to 0.17.
With UAACGGGGGGCCACAGCAGAAGCGUUCACGUCGCAGCCCCUGUCAGAUCCUGGUGAAUCUGCGAAUUCUGCUGUAUAACUC [A5G U49C U78A], the self-cleavage is 0.36.
Consider UAACGGGGGGCCACAGCAGAAGCGUUCACGUCGCAGCCCCUGUCAGAUCCAGGUGAAUCCGCGAAUCCUGCUGUUUAUCUC [A5G U49C U51A U60C U67C A75U], for which the self-cleavage stood at 0.19.
As for UAACGGGGGGCCACAGCAGAAGCGUUCACGUCGCAGCCCCUGUCAGACUCUGGUGAAUCUGCGUACUCUGCUGUAUAUCUC [A5G U48C A64U U66C], the self-cleavage came out at 0.17.
With UAACGGGGGGCCACAGCAGAAGCGUUCACGUCGCAGCCCCUGCCAGAUUCUGGUGAAUCUGCGAAUUCUGCUAUAUAUCUC [A5G U43C G73A] the figure was 0.98; with UAACGGGGGGCCACAGCAGAAGCGUUCACGUCGCAGCCCCUGUCAGAUCCUGGUGAAUCUGCGAAUUCCGCAGUAUAUCUC [A5G U49C U69C U72A], 0.07.
In the case of UAACGGGGGGCCACAGCAGAAGCGUUCACGUCGCAGCCCCUGUCAGACCCUGGUGAAUCUGCGAAUUCUGCUGUAUAUCUC [A5G U48C U49C], the self-cleavage amounted to 0.43.
As for UAACGGGGGGCCACAGCAGAAGCGUUCACGUCGCAGCCCCUGCCAGAUUCUGGUGAAUCUGCGAAUUCAGCUGUAUAACUC [A5G U43C U69A U78A], the self-cleavage was 0.29.
On to UAACGGGGGGCCACAGCAGAAGCGUUCACGUCGCAGCCCCUGUCAGAUUCAGGGGAACCUGCGAAUUCUGCUGUGUAUCUC [A5G U51A U54G U58C A75G], for which the self-cleavage was determined as 0.08.
In the case of UAACGGGGGGCCACAGCAGAAGCGUUCACGUCGCAGCCCCUGUCAGAUCCUGGUGAAUCUGCGAAUUCUACUGUAUAUCUC [A5G U49C G70A], the self-cleavage is 0.28.
Regarding UAACGGGGGGCCACAGCAGAAGCGUUCACGUCGCAGCCCCUGCCGGACUCUGGUGAAUCUGCGGAUUCUGCUGUAUAUCUC [A5G U43C A45G U48C A64G], the self-cleavage was found to be 0.32.
In the case of UAACGGGGGGCCACAGCAGAAGCGUUCACGUCGCAGCCCCUGUCAGACUCCGGUGAAUCUGCGUAUUCUGCUGUAUAUCUC [A5G U48C U51C A64U], the self-cleavage came out at 0.11.
On to UAACGGGGGGCCACAGCAGAAGCGUUCACGUCGCAGCCCCUGUCAGACUCUGGCGAGUCUGCGAAUGCUGCUGUAUAUCUC [A5G U48C U54C A57G U67G], for which the self-cleavage was determined as 0.13.
With UAACGGGGGGCCACAGCAGAAGCGUUCACGUCGCAGCCCCUGACAGAUUCAGGUGAAUCUGCGAAUUCUGCUGUAUAUCAC [A5G U43A U51A U80A] the figure was 0.5; with UAACGGGGGGCCACAGCAGAAGCGUUCACGUCGCAGCCCCUGUCAGAUCCUGGUGAAUCUGCGAAUUCCGCUGUAUAUCUC [A5G U49C U69C], 0.4.
